In paper PMC7054675 one finds binding data, which are given here for six substances.

Chains of the proteins cited; added tags and fusions are not shown. Lines headed by an entry give the natural chain unless they say otherwise; changes in a name come on top. A line that says so, or that is headed by a name, gives the form on record, which may keep a tag or linker. Residues count along the entry.
UniProt Q2TAZ0: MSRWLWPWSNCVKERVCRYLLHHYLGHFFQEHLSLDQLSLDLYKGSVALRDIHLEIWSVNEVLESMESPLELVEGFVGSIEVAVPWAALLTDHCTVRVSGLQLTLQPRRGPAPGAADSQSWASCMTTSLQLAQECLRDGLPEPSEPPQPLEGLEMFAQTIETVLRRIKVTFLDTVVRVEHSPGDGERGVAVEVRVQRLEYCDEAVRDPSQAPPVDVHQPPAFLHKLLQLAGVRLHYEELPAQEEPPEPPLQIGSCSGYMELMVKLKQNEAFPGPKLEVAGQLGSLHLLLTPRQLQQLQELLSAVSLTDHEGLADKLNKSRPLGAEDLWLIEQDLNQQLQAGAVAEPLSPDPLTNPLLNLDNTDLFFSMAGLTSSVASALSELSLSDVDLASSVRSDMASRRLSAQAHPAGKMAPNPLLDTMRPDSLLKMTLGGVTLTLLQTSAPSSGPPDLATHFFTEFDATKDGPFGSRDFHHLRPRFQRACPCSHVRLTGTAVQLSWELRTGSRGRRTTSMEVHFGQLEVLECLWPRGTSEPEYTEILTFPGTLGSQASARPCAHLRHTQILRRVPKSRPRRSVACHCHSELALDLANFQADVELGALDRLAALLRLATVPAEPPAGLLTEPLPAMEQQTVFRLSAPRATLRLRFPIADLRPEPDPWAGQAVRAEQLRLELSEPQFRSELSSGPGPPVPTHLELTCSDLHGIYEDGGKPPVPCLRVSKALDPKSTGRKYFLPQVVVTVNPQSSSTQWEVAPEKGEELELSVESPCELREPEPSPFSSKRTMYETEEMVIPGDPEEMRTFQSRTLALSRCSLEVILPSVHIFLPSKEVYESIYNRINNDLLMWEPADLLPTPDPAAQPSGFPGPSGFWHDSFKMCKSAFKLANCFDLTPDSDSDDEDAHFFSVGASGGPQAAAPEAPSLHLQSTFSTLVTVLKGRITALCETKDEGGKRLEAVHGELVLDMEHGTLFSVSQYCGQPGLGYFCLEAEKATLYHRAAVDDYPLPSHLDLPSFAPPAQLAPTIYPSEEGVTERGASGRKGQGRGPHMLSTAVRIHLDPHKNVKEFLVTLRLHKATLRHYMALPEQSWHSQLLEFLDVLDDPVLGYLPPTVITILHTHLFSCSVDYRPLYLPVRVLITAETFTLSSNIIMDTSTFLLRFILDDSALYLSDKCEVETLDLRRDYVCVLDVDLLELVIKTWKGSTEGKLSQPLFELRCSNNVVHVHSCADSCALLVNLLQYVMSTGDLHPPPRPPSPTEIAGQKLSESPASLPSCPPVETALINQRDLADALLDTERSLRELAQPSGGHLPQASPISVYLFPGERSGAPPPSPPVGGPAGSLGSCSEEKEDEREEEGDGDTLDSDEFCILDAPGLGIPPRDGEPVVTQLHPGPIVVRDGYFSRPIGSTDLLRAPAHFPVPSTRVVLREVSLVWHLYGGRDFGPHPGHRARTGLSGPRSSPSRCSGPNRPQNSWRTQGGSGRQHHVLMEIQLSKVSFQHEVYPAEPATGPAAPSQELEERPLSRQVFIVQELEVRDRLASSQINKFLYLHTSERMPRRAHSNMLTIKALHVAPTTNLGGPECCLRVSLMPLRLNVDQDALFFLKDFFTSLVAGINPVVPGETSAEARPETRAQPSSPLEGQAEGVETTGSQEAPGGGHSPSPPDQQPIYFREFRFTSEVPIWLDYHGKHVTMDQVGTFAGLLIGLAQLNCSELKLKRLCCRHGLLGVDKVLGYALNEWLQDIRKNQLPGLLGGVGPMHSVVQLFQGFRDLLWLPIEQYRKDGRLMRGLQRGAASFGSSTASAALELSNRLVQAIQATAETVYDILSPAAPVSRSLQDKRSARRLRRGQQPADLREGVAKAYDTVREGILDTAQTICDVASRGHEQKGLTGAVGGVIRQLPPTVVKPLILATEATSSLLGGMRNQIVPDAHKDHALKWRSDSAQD
UniProt O95166: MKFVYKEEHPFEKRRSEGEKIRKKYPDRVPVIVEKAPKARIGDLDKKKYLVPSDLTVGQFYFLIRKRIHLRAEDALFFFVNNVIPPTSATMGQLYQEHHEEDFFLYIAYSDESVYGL
UniProt Q9BXW4, residues 1-126: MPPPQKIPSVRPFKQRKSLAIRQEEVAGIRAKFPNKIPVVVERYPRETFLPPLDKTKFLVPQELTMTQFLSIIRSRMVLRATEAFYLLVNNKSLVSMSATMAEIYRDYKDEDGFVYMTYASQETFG
UniProt Q96BY7: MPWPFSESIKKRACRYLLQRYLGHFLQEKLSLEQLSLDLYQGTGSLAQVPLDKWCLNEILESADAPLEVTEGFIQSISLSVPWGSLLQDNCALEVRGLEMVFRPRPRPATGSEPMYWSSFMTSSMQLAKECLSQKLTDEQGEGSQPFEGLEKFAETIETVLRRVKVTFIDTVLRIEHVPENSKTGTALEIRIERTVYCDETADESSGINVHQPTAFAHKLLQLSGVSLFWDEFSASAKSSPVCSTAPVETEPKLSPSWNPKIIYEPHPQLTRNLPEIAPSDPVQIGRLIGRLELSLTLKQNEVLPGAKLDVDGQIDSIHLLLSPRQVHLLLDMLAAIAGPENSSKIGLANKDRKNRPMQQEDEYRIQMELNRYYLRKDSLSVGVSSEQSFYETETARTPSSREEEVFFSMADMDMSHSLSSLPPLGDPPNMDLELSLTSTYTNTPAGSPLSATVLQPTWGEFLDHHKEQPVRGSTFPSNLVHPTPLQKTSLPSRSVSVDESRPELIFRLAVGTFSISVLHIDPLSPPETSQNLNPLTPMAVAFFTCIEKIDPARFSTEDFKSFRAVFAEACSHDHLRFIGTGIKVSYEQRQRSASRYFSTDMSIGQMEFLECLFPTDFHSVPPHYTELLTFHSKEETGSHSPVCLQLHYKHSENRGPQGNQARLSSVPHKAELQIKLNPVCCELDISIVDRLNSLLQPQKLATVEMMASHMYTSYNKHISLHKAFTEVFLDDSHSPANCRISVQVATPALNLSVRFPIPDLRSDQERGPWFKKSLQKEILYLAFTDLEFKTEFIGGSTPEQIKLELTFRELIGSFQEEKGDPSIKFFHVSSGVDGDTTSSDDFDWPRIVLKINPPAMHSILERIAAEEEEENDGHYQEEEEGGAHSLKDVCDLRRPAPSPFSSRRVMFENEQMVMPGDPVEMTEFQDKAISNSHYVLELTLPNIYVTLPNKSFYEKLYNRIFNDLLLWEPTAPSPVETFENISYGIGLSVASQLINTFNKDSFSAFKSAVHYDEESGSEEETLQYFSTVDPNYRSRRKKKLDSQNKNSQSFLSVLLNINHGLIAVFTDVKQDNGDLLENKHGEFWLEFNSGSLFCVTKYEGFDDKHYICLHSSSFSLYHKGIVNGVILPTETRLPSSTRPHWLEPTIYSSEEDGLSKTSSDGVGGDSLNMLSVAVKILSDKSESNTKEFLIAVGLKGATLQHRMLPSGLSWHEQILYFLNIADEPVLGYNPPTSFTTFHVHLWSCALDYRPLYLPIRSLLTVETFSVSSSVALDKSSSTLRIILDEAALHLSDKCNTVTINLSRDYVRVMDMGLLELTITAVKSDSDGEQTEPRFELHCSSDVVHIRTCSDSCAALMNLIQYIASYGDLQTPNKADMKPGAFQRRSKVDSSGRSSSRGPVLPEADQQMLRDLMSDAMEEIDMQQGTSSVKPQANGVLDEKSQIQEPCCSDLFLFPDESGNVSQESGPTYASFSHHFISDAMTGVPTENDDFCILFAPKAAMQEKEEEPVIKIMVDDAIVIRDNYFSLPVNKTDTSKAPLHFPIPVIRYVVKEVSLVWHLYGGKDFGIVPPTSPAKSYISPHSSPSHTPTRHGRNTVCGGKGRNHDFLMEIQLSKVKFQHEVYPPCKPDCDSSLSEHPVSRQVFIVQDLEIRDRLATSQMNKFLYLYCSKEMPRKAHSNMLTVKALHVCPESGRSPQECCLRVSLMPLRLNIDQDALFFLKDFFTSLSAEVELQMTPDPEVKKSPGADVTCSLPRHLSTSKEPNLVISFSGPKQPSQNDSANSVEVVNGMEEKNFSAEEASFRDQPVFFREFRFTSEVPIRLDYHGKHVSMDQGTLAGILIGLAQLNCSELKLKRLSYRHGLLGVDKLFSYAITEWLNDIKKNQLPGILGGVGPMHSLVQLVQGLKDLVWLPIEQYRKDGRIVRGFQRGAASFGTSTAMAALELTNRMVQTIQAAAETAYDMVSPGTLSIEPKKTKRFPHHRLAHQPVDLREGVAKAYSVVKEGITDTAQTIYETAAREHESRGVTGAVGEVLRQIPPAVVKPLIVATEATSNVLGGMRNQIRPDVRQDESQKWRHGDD
Myc‐tagged ATG2B‐mLIR (LIR#6; FCIL/AAAA) (Q96BY7, form named): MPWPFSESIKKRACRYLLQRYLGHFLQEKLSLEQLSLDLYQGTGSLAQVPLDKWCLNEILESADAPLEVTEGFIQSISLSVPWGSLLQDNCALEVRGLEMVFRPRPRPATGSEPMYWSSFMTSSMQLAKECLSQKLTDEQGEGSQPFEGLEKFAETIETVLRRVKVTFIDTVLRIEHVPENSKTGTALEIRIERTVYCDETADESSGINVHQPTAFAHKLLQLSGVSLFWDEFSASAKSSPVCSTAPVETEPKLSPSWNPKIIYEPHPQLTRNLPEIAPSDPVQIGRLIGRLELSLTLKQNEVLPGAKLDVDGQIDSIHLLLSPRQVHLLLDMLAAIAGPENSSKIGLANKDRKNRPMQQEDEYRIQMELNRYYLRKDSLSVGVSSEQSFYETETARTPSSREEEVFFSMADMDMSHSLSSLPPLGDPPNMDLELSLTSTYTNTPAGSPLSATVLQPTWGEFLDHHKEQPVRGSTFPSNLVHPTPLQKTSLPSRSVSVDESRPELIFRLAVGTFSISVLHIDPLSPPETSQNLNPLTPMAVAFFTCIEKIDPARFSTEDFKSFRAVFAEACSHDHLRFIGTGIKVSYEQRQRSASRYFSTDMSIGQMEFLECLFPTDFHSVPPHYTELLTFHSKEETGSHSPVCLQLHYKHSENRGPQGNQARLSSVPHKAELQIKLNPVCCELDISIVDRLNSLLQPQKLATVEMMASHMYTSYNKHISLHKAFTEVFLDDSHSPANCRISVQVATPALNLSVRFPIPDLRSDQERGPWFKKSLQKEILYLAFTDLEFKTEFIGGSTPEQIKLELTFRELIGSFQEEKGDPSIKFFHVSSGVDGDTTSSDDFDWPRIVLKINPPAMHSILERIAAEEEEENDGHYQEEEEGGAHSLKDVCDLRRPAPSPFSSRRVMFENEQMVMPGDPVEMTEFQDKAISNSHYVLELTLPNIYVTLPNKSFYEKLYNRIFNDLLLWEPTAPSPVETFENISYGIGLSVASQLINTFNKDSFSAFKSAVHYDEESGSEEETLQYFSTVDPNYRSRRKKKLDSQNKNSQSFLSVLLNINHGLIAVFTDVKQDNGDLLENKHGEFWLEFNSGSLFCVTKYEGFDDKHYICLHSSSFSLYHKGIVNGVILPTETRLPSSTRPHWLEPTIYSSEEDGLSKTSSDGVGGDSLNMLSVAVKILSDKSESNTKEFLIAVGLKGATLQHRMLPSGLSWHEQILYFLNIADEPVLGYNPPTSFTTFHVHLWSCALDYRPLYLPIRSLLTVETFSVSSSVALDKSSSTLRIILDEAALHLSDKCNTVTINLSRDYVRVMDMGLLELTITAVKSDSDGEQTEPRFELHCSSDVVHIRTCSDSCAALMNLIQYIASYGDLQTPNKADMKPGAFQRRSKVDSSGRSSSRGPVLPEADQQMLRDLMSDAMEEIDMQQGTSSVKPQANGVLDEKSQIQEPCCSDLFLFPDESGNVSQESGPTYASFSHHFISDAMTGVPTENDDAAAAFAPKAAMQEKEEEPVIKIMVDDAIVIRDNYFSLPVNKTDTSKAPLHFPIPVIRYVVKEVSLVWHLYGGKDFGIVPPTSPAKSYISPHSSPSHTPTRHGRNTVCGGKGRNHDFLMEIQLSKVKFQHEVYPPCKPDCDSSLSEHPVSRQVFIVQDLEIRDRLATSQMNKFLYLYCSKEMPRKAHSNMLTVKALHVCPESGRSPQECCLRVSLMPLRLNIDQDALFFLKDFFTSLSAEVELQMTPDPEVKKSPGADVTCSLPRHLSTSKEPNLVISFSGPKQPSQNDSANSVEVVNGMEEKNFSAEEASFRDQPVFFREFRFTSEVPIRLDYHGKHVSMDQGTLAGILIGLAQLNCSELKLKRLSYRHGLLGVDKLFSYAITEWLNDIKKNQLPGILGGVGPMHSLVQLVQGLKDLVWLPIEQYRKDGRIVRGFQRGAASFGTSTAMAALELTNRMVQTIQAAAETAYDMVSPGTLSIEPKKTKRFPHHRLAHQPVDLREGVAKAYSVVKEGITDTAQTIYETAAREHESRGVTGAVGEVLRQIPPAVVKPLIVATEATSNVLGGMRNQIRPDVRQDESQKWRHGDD

The target of test [1] is HA‐tagged ATG2A‐mYFS (YFS/AAA) (human) (UniProt Q2TAZ0). Kind of test: co-IP; U2OS ATG2A/B DKO cells stably expressing HA-ATG2A WT, mLIR or mYFS, transfected with GFP-GABARAP, complete medium or starved 2 h (EBSS); anti-HA beads; blots for WIPI4 and GFP.
Test [2] concerns the target HA‐tagged ATG2A‐mLIR (FCIL/AAAA) (human) (UniProt Q2TAZ0). Described as above.
In test [3] the target is GFP‐tagged GABARAP (in HEK293T cells) (UniProt O95166). Kind of test: co-IP; Myc-ATG2A or Myc-ATG2B (WT or mLIR) co-expressed with GFP alone, GFP-LC3B or GFP-GABARAP in HEK293T; anti-GFP nanobody agarose; anti-Myc blot.
Another test addresses GFP‐tagged MAP1LC3A (UniProt Q9H492). Kind of test: co-IP; GFP alone or GFP-tagged ATG8 proteins overexpressed in HEK293T; GFP-TRAP beads; blots for endogenous ATG2A, ATG2B, p62/SQSTM1, WIPI4.
In a further test the target is GFP‐tagged MAP1LC3C (UniProt Q9BXW4). The description is as above.
In test [4] the target is GFP‐tagged GABARAP (in HEK293T cells) (UniProt O95166). The description is as above.
The target in the next test is T1, GFP‐tagged WIPI4 (WDR45) (UniProt Q9Y484).
T1 sequence: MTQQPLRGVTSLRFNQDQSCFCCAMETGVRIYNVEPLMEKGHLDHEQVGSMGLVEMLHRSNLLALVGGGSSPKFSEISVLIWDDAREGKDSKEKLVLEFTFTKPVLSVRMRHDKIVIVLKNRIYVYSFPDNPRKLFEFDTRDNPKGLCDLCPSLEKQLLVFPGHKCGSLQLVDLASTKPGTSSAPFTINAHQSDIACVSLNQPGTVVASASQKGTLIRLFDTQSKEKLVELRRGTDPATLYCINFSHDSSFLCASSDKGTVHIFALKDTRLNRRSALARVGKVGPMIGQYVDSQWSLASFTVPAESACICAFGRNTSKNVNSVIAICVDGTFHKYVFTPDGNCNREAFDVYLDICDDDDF
Kind of test: co-IP; GFP alone, GFP-WIPI4 or GFP-WIPI4 with increasing concentrations of mCherry-GABARAP expressed in HEK293T for 24 h; GFP-TRAP beads; blots for endogenous ATG2A and ATG2B.

The target in test [5] is GFP‐tagged GABARAP (in HEK293T cells) (UniProt O95166). As to the kind of experiment: co-IP; GFP alone, GFP-GABARAP or GFP-GABARAP with increasing concentrations of mCherry-WIPI4 expressed in HEK293T for 24 h; GFP-TRAP beads; blots for endogenous ATG2A and ATG2B.

These are yes or no findings as the source states them, for the method shown. In cells and extracts the contact can be indirect. Some results given as binding are weak or reduced against the parent protein; the word gives no strength. For some of these results: Sequences can lack the tags named with a protein.

Take “GFP‐tagged GABARAP (in U2OS ATG2A/B double‐knockout cells) (from UniProt O95166 1-117)”: the binding entry in test [1] is reported as “binds”; in test [2] it was “no binding”.
Turning to “Myc‐tagged ATG2B‐mLIR (LIR#6; FCIL/AAAA) (from UniProt Q96BY7 1-2078)”, the binding entry in test [3] is given as “no binding”.
In the case of “ATG2B, endogenous in HEK293T cells (from UniProt Q96BY7 1-2078)”, the binding result was “binds weakly” with GFP‐tagged MAP1LC3A; “no binding” with GFP‐tagged MAP1LC3C; “binds” in test [4]; “binds” in the test with GFP‐tagged WIPI4 (WDR45); “binds” in test [5].
For the substance “Myc‐tagged ATG2A‐mutant LIR #5 (mLIR; FCIL/AAAA) (from UniProt Q2TAZ0-1 1-1938)”, the binding entry in test [3] is given as “no binding”.
For “ATG2A, endogenous in HEK293T cells (from UniProt Q2TAZ0-1 1-1938)”, the binding result with GFP‐tagged MAP1LC3A was “binds weakly”; with GFP‐tagged MAP1LC3C it was “no binding”; in the test with GFP‐tagged WIPI4 (WDR45) it was “binds”.
Consider “Myc‐tagged ATG2B wild type (from UniProt Q96BY7 1-2078)”, for which the binding result in test [3] is “binds”.
